# Values joined by “and” are separate entries in the source; they are usually repeats but may differ in a detail not shown here. Equal entries are not always repeated. Over roughly 110,000 compounds, “z-score” has its median near -0.1; the highest 2% begin near 2. Some of the results follow. Active and inactive are the calls of the source.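 Rule for the calls: active = z-score in the third read window above 3 or below -3; inactive = the rest.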
# Biological target: Metabotropic glutamate receptor 8 (Rattus norvegicus) (UniProt P70579)
# Sequence of UniProt P70579 (P70579 whole entry, looked up): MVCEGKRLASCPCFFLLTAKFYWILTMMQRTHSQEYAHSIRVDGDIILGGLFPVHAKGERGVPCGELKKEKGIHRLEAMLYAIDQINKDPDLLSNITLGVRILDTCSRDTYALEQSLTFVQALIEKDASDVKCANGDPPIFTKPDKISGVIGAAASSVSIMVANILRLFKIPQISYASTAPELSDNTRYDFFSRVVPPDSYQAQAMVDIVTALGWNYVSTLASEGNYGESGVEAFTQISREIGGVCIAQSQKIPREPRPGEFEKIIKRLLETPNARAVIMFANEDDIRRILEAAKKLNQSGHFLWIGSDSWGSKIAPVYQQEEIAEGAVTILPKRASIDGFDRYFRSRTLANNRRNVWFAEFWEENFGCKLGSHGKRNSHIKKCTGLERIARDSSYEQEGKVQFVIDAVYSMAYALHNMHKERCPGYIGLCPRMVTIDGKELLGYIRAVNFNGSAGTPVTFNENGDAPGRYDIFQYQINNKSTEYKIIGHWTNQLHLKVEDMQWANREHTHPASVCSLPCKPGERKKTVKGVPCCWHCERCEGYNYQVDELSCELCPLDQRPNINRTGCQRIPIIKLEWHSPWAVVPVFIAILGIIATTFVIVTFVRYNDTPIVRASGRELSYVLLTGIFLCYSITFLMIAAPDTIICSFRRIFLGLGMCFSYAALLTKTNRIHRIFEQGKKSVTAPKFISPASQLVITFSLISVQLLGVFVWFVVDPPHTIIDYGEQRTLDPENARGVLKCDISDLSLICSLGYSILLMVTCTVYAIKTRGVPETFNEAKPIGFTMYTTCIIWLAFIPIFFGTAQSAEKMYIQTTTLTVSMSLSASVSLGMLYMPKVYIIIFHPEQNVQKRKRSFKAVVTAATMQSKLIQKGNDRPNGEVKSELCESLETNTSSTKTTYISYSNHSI
# Assay: rat mGluR8 modulators via GIRK flux, primary screen, cell-based, thallium flux, HTS (AID 488969)
# Conditions: HEK293 rat mGluR8, GIRK (G protein-gated inwardly rectifying potassium channel) thallium flux, FluoZin2; at 10 µM; stronger effect = higher value; submaximal glutamate (EC20) added with thallium
row,Compound,z-score
1,Cc1oc2c(CN3CCOCC3)c(O)ccc2c(=O)c1-c1ccc(Br)cc1,-0.298
2,COc1ccc(NC(=S)N2CCC(C(=O)N3CCCCCC3)CC2)cc1,0.26
3,CNC(=O)C12CCC(C)(c3nc4cc(C)c(C)cc4nc31)C2(C)C (stereo unspecified),-0.217
4,COc1ccccc1Nc1nnc(SCC(=O)N2CCCC2=O)s1,1.33
5,Cc1ccc(-c2nnn(CC(=O)N(Cc3ccco3)C(C(=O)NC(C)(C)C)c3cccs3)n2)o1 (stereo unspecified),-0.677
6,O=C1c2ccccc2S(=O)(=O)N1CC1CC(c2ccccc2)=NO1 (stereo unspecified),-0.385
7,COC(=O)c1sccc1NC(=O)/C=C/c1c(Cl)cccc1Cl,-0.118
8,Cc1cc(=O)n2nc(N3CCCC(C(=O)N4CCN(C)CC4)C3)sc2n1 (stereo unspecified),0.72
9,CCOC(=O)c1cnc(-n2nc(C)cc2C)nc1NCc1ccccc1,-0.648
10,CCCOc1ccc(N2C(=O)CC(NCCCN3CCC(C(N)=O)CC3)C2=O)cc1 (stereo unspecified),-0.136
11,O=C(CN(C(=O)CNC(=O)c1ccco1)c1ccc2c(c1)OCO2)NC1CCCCC1,0.676
12,COc1ccc(OC)c(NC(=O)c2ccc(S(=O)(=O)N3CCN(C)CC3)cc2)c1,-0.884
13,O=c1c2c(nc3nc[nH]n13)CCC2,-0.196
14,Cc1onc(-c2ccccc2Cl)c1C(=O)N1CCc2ccccc21,0.442
15,CC1(C)SC(=S)N(Cc2ccc3c(c2)OCO3)C1N(O)C(=O)NC1CCCCC1 (stereo unspecified),-0.445
16,CCN(CC)S(=O)(=O)c1ccc2c(c1)c(=O)c(C(=O)N1CCN(c3ccccc3)CC1)cn2C,-1.51
17,O=C(CN1CCC(C(=O)c2cccc(F)c2)CC1)NCc1cccs1,-0.0194
18,Cc1ccc(-c2cc(C(=O)NCc3ccc4c(c3)OCO4)no2)cc1,-0.211
19,Cc1cccc2sc(NC(=O)C3=NN(c4ccccc4)C(=O)CC3)nc12,-0.371
20,Cc1ccc(C(=O)NNC(=O)CSc2nnc(-c3ccncc3)n2-c2ccc(C)cc2)cc1,-0.528
21,O=C1CC(N2CCC(c3nc4ccccc4s3)CC2)C(=O)N1Cc1ccccc1 (stereo unspecified),-0.423
22,CCOC(=O)c1sc(NC(=O)CSc2ncccn2)c(C#N)c1C,-0.32
23,C=CCNS(=O)(=O)c1ccc(OC)c(C)c1,0.193

row,Compound,z-score
1,Cc1ccc(Nc2ccccc2)cc1,-0.319
2,Cc1c(Cl)cccc1NC(=S)NC1CCN(Cc2ccccc2)CC1,-0.67
3,CCOc1ccc(OCC(O)CNC2CCN(Cc3ccccc3)CC2)cc1 (stereo unspecified),0.38
4,COc1ccc(S(=O)(=O)NCCSCc2ccco2)cc1C,-0.162
5,O=C(CSCCO)Nc1cc(C(F)(F)F)ccc1Cl,0.171
6,O=C(O)/C=C/c1nc(-c2ccccc2)n2ccccc12,-0.293
7,CCOC(=O)CN1C(=O)SC(CC(=O)Nc2nccs2)C1=O (stereo unspecified),0.137
8,CCC(=O)NC(Nc1ncc(C)s1)(C(=O)OC)C(F)(F)F (stereo unspecified),-0.503
9,CCOC(=O)c1c(NC(C)=O)sc2c(O)c(CN3CCN(CC)CC3)ccc12,0.962
10,Cc1nn(C)c(C)c1S(=O)(=O)N1CCCC(C(=O)NCC2COc3ccccc3O2)C1 (stereo unspecified),0.153
11,Cc1noc(C)c1C(=O)OCC(=O)/C=C1\N(C)c2ccccc2C1(C)C,-0.0096
12,COc1ccc2c(c1)C(=O)N(c1ccc(C)cc1)C(=O)C2,-0.101
13,CCCCC(=O)Nc1ccc2c(c1)C(=O)NC2=O,-0.138
14,O=C(Nc1cc(C(F)(F)F)ccc1N1CCOCC1)c1cccc(F)c1,0.104
15,CC(C)(CNC(=O)c1cc(=O)[nH]c2ccccc12)N1CCOCC1,0.0537
16,S=C(Nc1ccc(Cl)cc1Cl)NC1CCCCC1,0.599
17,CCN(CC)CCCNC(=O)C1c2cc(OC)c(OC)cc2C(=O)N(C)C1c1cccs1 (stereo unspecified),0.0641
18,O=[N+]([O-])c1cccc(-c2ccc(/C=N/n3c(-c4ccccc4)n[nH]c3=S)o2)c1,0.0532
19,Cc1cc2oc(=O)c3c(c2cc1OC(=O)c1ccco1)CCCC3,-0.17
20,CC(=O)c1ccc(NC(=O)/C(=C\c2ccccc2)NC(=O)/C=C/c2ccccc2)cc1,-0.443
21,CCOC(=O)c1c(N)sc(C(=O)N2CCOCC2)c1C,0.105
22,CCN(CC)c1ccc(SS(=O)(=O)O)cc1,0.214 and -0.202
23,O=C1C2C(C(=O)N1Cc1ccco1)C1C=CC2C12CC2 (stereo unspecified),0.0454

row,Compound,z-score
1,Cc1ccc(C)n1-n1c(C)nc2sc3c(c2c1=O)CCCCC3,0.163
2,COc1cccc(C(=O)NN2c3ccccc3CCc3ccccc32)c1,-1.14
3,Cc1ccccc1NC1=CC(=O)CC(C)(C)C1,-0.1
4,CCOC(=O)Cn1cc(C(=O)C2CC2)c2ccccc21,0.886
5,CCOc1ccc(C2CC(c3ccccc3C)n3nc(N)nc3N2)cc1 (stereo unspecified),0.35
6,COc1ccc(C(c2nnnn2CC2CCCO2)N2CCN(c3ccccc3)CC2)cc1 (stereo unspecified),0.09
7,CC(Sc1cccc2cccc(C(=O)O)c12)C(=O)O (stereo unspecified),0.548
8,CNc1nc(C)nc(-c2ccccc2O)n1,-0.243
9,Cc1ccc2nc(SCC(=O)Nc3ccc(F)c([N+](=O)[O-])c3)[nH]c2c1,-0.15
10,Cc1cc(C)cc(-n2nnc(C(=O)NCc3ccco3)c2N)c1,-1.04
11,Cc1ccc(NC(=O)/C(=C\c2cccnc2)NC(=O)c2ccco2)cc1,0.0795
12,Cc1c(NC(=O)c2cc(-c3ccccc3)on2)c(=O)n(-c2ccccc2)n1C,0.102
13,CS(=O)(=O)N(CC(=O)N1CCOCC1)Cc1ccc(Cl)cc1,-0.225
14,O=C(Nc1ccc2c(c1)OCCO2)c1cnc2n(c1=O)CCS2,0.165
15,COc1ccc(N2CCN(C(=O)c3cccc(Cn4cc(Cl)cn4)c3)CC2)cc1,-1.05
16,Cc1cc(C(=O)COC(=O)Cc2n[nH]c(=O)c3ccccc23)c(C)n1-c1cccc(C(F)(F)F)c1,-1.01
17,Cn1c(=O)cc(NCCc2ccccc2)[nH]c1=O,0.914
18,COc1ccc(NC(=O)CSc2nc3ccccc3c(=O)n2Cc2cccs2)c(OC)c1,0.00897
19,O=[N+]([O-])c1ccc(-c2nc(NCc3ccccc3)c3ccccc3n2)cc1,0.258
20,CCCCOC(=O)c1ccc(NC(=O)COC(=O)CSc2nc(C)cc(C)n2)cc1,-0.348
21,CCCn1c(N2CCOCC2)nc2c1c(=O)[nH]c(=O)n2C,0.167
22,O=C(Nc1cccc(C(F)(F)F)c1)C(Sc1ncnc2ccccc12)c1ccccc1 (stereo unspecified),0.212
23,CCOC(=O)c1cnn(-c2ccccc2)c1NC(=O)c1ccccc1C,-0.103

row,Compound,z-score
1,COc1ccc(/C(O)=C2/C(=O)C(=O)N(CC3CCCO3)C2c2cccc(O)c2)cc1 (stereo unspecified),-0.0622
2,CCCCOCP(=O)(CCCC)COCCCC,-0.549
3,COc1cc(/C=N/NC(=O)CC2(C)OCCCO2)ccc1OCc1ccccc1,-0.0134
4,Cc1cc(SCCC(=O)O)nc2ccccc12,0.204
5,COc1ccc(Cc2nc(C(=O)Nc3ccc(OC)cc3)cs2)cc1,0.0776
6,CC(=O)c1c(OC(=O)c2ccco2)c2ccccc2n1C,0.752
7,C=CCn1c(C)cc(C(=O)COc2ccc(S(=O)(=O)N3CCCC3)cc2[N+](=O)[O-])c1C,0.0585
8,COc1ccc(CSC(=N)N)cc1[N+](=O)[O-],0.197
9,NC(=O)C(c1ccc(Cl)cc1)c1ncc(C(F)(F)F)cc1Cl (stereo unspecified),-0.0293
10,COc1ccccc1Nc1ccc([N+](=O)[O-])cc1N,-0.303
11,CC(=O)Nc1ccc(N/C=C/C(=O)c2ccc(C)o2)cc1,0.0049
12,Cc1ccc(Nc2nc3c(c(=O)[nH]2)CCCC3)cc1,1.39
13,COc1cc(/C=N/Nc2ncc(C(F)(F)F)cc2Cl)cc(OC)c1O,-0.521
14,CCCN(CCC)C(=O)C[n+]1cccc(/C=N/O)c1,-0.0664
15,COC(=O)CSc1nnc(-c2ccccn2)n1Cc1ccco1,0.213
16,Cc1occc1-c1nnc(SCc2cc(=O)n3cc(Br)ccc3n2)n1C,0.0968
17,CC(C)(C)C(=O)NC1CCN(S(=O)(=O)c2ccccc2F)CC1,-0.294
18,CSCCC(C(=O)O)N1C(=O)c2ccc(C(=O)O)cc2C1=O (stereo unspecified),0.562
19,CNS(=O)(=O)c1cccc(C(=O)NCC(c2cccs2)N(C)C)c1 (stereo unspecified),0.554
20,O=[N+]([O-])c1ccc(Sc2nnnn2-c2ccccc2)c(Cl)c1,0.585
21,CCC(C(=O)NCCCc1ccccc1)c1ccccc1 (stereo unspecified),-0.218
22,C/C(=N\NC(=O)C1CC1)c1cccnc1,-0.241
23,O=C(N/N=C/c1c(O)n(-c2ccc(Cl)cn2)c(=O)c2ccccc12)C1CC1,-0.139

row,Compound,z-score
1,O=C(Nc1ccc(-n2cnnn2)cc1)C1CCCN1C(=O)NC1CCCCC1 (stereo unspecified),-0.018
2,CCOC(=O)C(NCc1ccccc1OC)(NC(=O)c1ccccc1)C(F)(F)F (stereo unspecified),-0.123
3,Cc1cccc(C)c1NC(=O)CSc1nc(COc2ccccc2)nc2ccccc12,0.755
4,COc1cc(CNc2nc(C)c([N+](=O)[O-])c(C)c2C#N)cc(OC)c1,-0.18
5,CCOc1ccc(N(Cc2cc3ccc(C)cc3[nH]c2=O)C(=O)COC)cc1,1.24
6,CC(=O)c1cccc(NC(=O)c2oc(C)nc2C)c1,0.000627
7,Cc1ccc(-c2cc(-c3ccc(Cl)cc3)c(C#N)c(N)n2)o1,0.222
8,CCOc1cc(/C=N/NC(N)=O)cc(Br)c1OCC(=O)Nc1ccccc1C,-0.261
9,CS(=O)(=O)N1CCN(c2ccccc2F)CC1,0.0453
10,O=C(Nc1ccc(O)cc1)c1cc(S(=O)(=O)N2CCCC2)ccc1Cl,0.0382
11,CCOC(=O)N1CCN(CCC(=O)Nc2ccc(OC)cc2)CC1,-0.183
12,CC(O)c1nc2ccccc2n1C1CCCCC1 (stereo unspecified),active: 6.36
13,CSc1nnc(-c2cc(C)on2)n1-c1ccccc1,1.12
14,CCn1cc(C(=O)NCCCN2CC(C)CC(C)C2)c2cc(OC)c(OC)cc2c1=O (stereo unspecified),-0.607
15,COc1ccccc1CC(NC(C)=O)C(=O)NC1CCN(C(=O)c2ccc([N+](=O)[O-])cc2)CC1 (stereo unspecified),0.0267
16,CCOC(=O)C(CC)n1cnc2c(nnn2-c2ccc(C)cc2)c1=O (stereo unspecified),-0.636
17,CC12CN3CCN(CC(C3)/C1=N\N=C1/C3CN4CCN(C3)CC1(C)C4)C2,-0.673
18,Cc1ccc(NC(=S)N/C(=N/S(=O)(=O)c2ccccc2)c2ccccc2)cc1,1.36
19,O=C(c1ccccc1)N1CCC(c2nc(-c3ccc(S(=O)(=O)N4CCOCC4)cc3)no2)CC1,-0.281

# From PubChem BioAssay AID488969 (Vanderbilt High Throughput Screening Facility, 2010)
